Measured values published in publication PMC6919601, “Identification of Plasmodium dipeptidyl aminopeptidase allosteric inhibitors by high throughput screening” (PLoS ONE, 2019).
Several values for one entry are separate records, joined by “and”; a condition that tells them apart may be missing. Equal values may be shown once. The campaign covered roughly 110,000 compounds. About 230 (0.21%) showed an effect of 50% or more. The list shows a part of the results.

Biological target: DPAP1 (Plasmodium falciparum, UniProt Q8IIJ9)
Assay: primary screen, percent inhibition; read by cleavage of a fluorogenic dipeptide substrate; higher = more effect of the substance
Parameters: species or system P. falciparum D10 trophozoite lysates; single well
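Further: 30 min substrate incubation versus DMSO and 10 µM JCP410 controls.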

DPAP1, sequence (Q8IIJ9 whole entry, looked up): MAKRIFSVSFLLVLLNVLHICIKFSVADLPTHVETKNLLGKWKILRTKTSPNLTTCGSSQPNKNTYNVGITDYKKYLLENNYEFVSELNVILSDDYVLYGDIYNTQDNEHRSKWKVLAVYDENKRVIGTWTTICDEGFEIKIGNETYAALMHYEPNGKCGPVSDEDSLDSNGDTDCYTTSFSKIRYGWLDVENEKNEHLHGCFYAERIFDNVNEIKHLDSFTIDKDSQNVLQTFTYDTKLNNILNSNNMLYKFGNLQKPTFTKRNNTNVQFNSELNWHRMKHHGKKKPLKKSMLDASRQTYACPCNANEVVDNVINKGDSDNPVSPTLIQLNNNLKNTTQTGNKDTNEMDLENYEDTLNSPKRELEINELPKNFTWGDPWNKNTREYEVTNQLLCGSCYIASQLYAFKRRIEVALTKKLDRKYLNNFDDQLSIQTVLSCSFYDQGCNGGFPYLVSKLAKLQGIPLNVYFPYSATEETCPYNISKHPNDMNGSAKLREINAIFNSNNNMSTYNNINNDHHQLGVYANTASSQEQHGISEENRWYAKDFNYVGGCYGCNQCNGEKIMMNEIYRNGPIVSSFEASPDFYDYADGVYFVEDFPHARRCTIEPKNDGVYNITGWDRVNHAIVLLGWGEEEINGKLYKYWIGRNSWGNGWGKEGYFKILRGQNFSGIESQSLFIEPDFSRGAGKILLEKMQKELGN

SMILES	% Inhibition @ 10 uM
C=CCNC(=O)CN(c1cc(C(F)(F)F)ccc1Cl)S(=O)(=O)c1ccccc1	3.62% and 1.19%
Cc1ccc(C)n1-c1nnc(N2CCCC(C(=O)NCc3ccccc3Cl)C2)s1 (stereo not shown)	1.03%
COCCCNC(=O)c1cc(Sc2cccc(Cl)c2)nc2ccccc12	-2.26%
COc1cc(C2C(C#N)=C(N)N(c3ccc(Cl)cc3)C3=C2C(=O)CCC3)cc(OC)c1OC (stereo not shown)	-5.07%
CCCCCc1nn2cc(-c3cccc(OC)c3)nc2s1	-1.16%
OC(COc1ccc(Cl)cc1)CN1CCN(c2ccccc2F)CC1 (stereo not shown)	-8.86%
CCN(Cc1ccccc1)C(=O)Cn1c(=O)cc(C)c2c(C)nn(C)c21	3.66%
COc1ccc(CCNC(N)=S)cc1OC	-3.27%
CC(C)(C)c1ccc(/C=c2\sc3ncnn3c2=O)cc1	0.222%
C=CCn1c(CCNC(=O)C(C)C)nc2ccccc21	-1.74%
O=C1C(/C=N/c2ccc(S(=O)(=O)Nc3ncccn3)cc2)=C(O)c2ccccc21	-2.68%
COc1ccc(S(=O)(=O)Nc2ccccc2C(F)(F)F)cc1	-6.12%
NC(=O)c1[nH]ncc1NCc1ccccc1O	-0.222%
CCCCOc1ccccc1C1C2=C(O)CCCC2=NC(C)=C1C(=O)OC(C)C (stereo not shown)	11.6%
COc1ccc(N2CCN(C(=O)c3nn(C)c(C(F)(F)F)c3Cl)CC2)cc1	-0.99%
Cc1cc(Cl)ccc1NC(=O)c1cccc([N+](=O)[O-])c1C	-8.37%
CC[C@H](NC(=O)[C@H](C[C@H](C)c1ccccc1)NC(=O)c1cc2c(C(F)(F)F)nn(C)c2s1)C(=O)c1nc2ccccc2o1	-6.56%
O=C(CSc1ncnc2[nH]cnc12)N1CCN(c2ccc(Cl)cc2)CC1	-8.41%
CCOCCCNC(=O)C(NC(=O)c1ccccc1O)c1ccc(C)cc1 (stereo not shown)	3.61%
COc1ccc(C(=O)N(c2ccccc2)c2ccc3ccccc3c2)cc1OC	23.4%
O=C(O)CC(/N=C/C1=C(O)CCCC1=O)C(=O)O (stereo not shown)	0.484%
OC(c1ccccc1)c1ccc(Cl)s1 (stereo not shown)	-7.13%
O=C1S/C(=C\c2ccccc2O)C(=O)N1CCOc1ccccc1	2.01%
COc1ccccc1/C=C/C=C1\N=C(c2ccccc2C)OC1=O	0.997%
Cc1ccc(OC(C)C(=O)Nc2cccc(O)c2)cc1 (stereo not shown)	1.28%

SMILES	% Inhibition @ 10 uM
CCCOc1ccc(C(CC(=O)O)NC(=O)c2c(-c3ccccc3Cl)noc2C)cc1 (stereo not shown)	-2.28%
CC(N)CNc1ccc(Cl)cc1[N+](=O)[O-] (stereo not shown)	7.66%
O=C1CC(c2ccccc2)S(=O)(=O)c2ccccc2N1 (stereo not shown)	-3.92%
COc1ccc(C(CC(=O)NC2CCN(Cc3ccccc3)CC2)N2Cc3ccccc3C2=O)cc1 (stereo not shown)	-9.9%
COc1ccc(CNCc2ccc(OC)c(OC)c2OC)cc1	2.15%
CC(C)NC(=O)CN(c1ccc(Oc2ccccc2)cc1)S(C)(=O)=O	0.189%
CCCCN1C(=O)NC(NC(=O)c2ccc(F)cc2)(C(F)(F)F)C1=O (stereo not shown)	1.01%
COc1ccc(C2CC3=Nc4ccccc4NC(c4cc(OC)c(O)c(OC)c4)C3=C(O)C2)cc1 (stereo not shown)	1.8%
Clc1cccc(-c2noc3ncnc(N4CCCC4)c23)c1	7.21%
O=C(CCSc1ccc(Cl)cc1)NC12CC3CC(CC(C3)C1)C2	1.64%
c1ccc(CCN2CCC(NCCN3CCCCC3)CC2)cc1	3.48%
CCC(=O)Nc1ccc(S(=O)(=O)Nc2cc(C)cc(C)c2)cc1	1.62%
CCOc1ccc2nc3ncccc3c(O)c2c1	-5.51%
O=C1NCCc2c1[nH]c1c(Cl)ccc(Cl)c21	6.47%
N#C/C(=C\c1c(Oc2ccc(Br)cc2)nc2ccccn2c1=O)C(=O)NC1CCCCC1	-0.828%
Clc1ccc(CCNC2CCN(Cc3ccccc3)CC2)c(Cl)c1	-1.5%
O=C1c2cccc3c(Cl)ccc(c23)C(=O)N1Cc1cccs1	1.61%
COc1ccc(CCN2C(=O)CN(Cc3ccccc3)CC2=O)cc1OC	3.47%
CCCCNC(=O)C(=O)NCCc1c[nH]c2ccccc12	-1.82%
Cc1ccc(-c2nc(CS(=O)CC(=O)NCc3cccs3)c(C)o2)cc1 (stereo not shown)	-6.64%
CC(C)Cn1cc(NC(=O)N2CCCCCC2)c2ccccc2c1=O	-2.71%
CC(NC(=O)C1CCN(S(=O)(=O)c2c[nH]cn2)CC1)c1ccccc1 (stereo not shown)	-0.499%
Cc1cc2ncc(S(=O)(=O)c3ccccc3)c(-c3ccc(Br)cc3)n2n1	-5.69%
Cc1ccc(NC(=O)Nc2ccc(Cl)cc2)cc1NC(=O)Nc1ccc(Cl)cc1	-7.35%
O=C(O)C1C2C=CC(CC2)C1C(=O)O (stereo not shown)	6.31%

SMILES	% Inhibition @ 10 uM
O=C(O)C1CSC2(CCN(Cc3ccccc3)CC2)N1 (stereo not shown)	1.92%
Cc1nc2nc(NC(=O)c3cccs3)nn2c(O)c1Cc1ccccc1	3.66%
CCCc1ccc(OCCN2C(=O)c3ccccc3C2=O)cc1	-1.85%
CCCN(CCC)c1sc(S(C)(=O)=O)nc1S(=O)(=O)c1ccc(C)cc1	5.84%
CCCc1nc2nc(C)cc(NCCc3ccc(Cl)cc3)n2n1	-6.22%
Nc1c(C(=O)c2ccc(Cl)cc2)sc2nc(-c3ccccc3)ccc12	-0.261%
Cc1ccc(C(=O)NCc2cccc(CNC(=O)c3ccc(C)o3)c2)o1	4.81%
CCN(CC)c1cc(=O)n2c(n1)SCCC2	0.558%
CC1=CC(=Cc2sc3ccccc3[n+]2C)C=C(C)O1	4.41%
COC(=O)c1ccc(C2Oc3c(OC)cccc3C3CC(c4cc(C)ccc4O)=NN32)cc1 (stereo not shown)	0.0719%
O=C(CN(Cc1ccccc1)S(=O)(=O)c1ccc(Br)cc1)Nc1ccc(F)cc1	7.03%
CC(C)(C)NC(=O)c1oc2ccccc2c1NC(=O)c1ccc2c(c1)OCO2	-2.9%
CC(C)CN(CC(C)C)c1nnc(NC(=O)NC23CC4CC(CC(C4)C2)C3)s1	2.27%
COCCNC(=O)C1CCN(C(=O)c2ccc(-n3ccc4ccccc43)s2)CC1	-1.55%
CCOc1ccc(-c2c(C)nn3c(O)c(N4CCOCC4)c(C)nc23)cc1OCC	-6.09%
Cc1ccc(NC(=O)CCOc2ccccc2)cc1C	4.67%
COc1cc(/C=C2\SC(=O)N(Cc3ccc(F)cc3)C2=O)c(Br)cc1O	1.81%
Cc1ccc(C23CC4CC(C2)CC(C(C)N)(C4)C3)cc1C (stereo not shown)	-4.67%
O=S1(=O)CC2OC3CS(=O)(=O)CC3OC2C1 (stereo not shown)	-3.98%
NS(=O)(=O)c1ccc(CNC(=O)CSc2nc3cccnc3[nH]2)cc1	-1.85%
CCOC(=O)c1cnc2c(ccc3ccccc32)c1NCCCCCO	-2.65%
CCc1ccc(S(=O)(=O)c2cnc3ccc(OC)cc3c2O)cc1	-1.7%
CC(C)(C)NCCCCOc1ccc(Br)cc1	-4.18%
Nc1nc(O)ncc1-c1ccc(-c2ccccc2)s1	-7.89%
O=C(O)c1c(O)nnc(-c2ccccc2)c1-c1ccccc1	0.221%

SMILES	% Inhibition @ 10 uM
CC(=O)N1[C@@H](c2ccc(Cl)cc2)SC[C@H]1C(=O)N1CCN(c2ccccc2)CC1	0.35%
CC(=O)C1=C(O)C(=O)N(Cc2ccccc2)C1c1ccccc1F (stereo not shown)	-5.23%
O=c1ncn(-c2ccc(F)cc2)c2ncccc12	1.94%
Clc1ccc(N2CCN(Cc3ccc(Cl)c(Cl)c3)CC2)cc1	-5.5%
O=C(CCCCC(=O)N1CCN(c2ccccc2)CC1)N1CCN(c2ccccc2)CC1	-1.84%
FC(F)(F)c1ccccc1-c1ncnn1-c1ccc(Cl)cc1	-4.03%
CC(C)CC(C(=O)NCC#N)c1csc(N2CCN(C)CC2)n1 (stereo not shown)	-4.72%
COc1cc(OC)nc(Oc2cccc(Cl)c2C)n1	1.89%
Cc1ccc(NC(=O)CC2SC(Nc3ccc(C)c(C)c3)=NC2=O)cc1 (stereo not shown)	3.35%
CC1(C)OC(=O)N(CCc2ccccc2)C1(C)O (stereo not shown)	-0.99%
O=C(C1=C(O)C(=O)N(CCCn2ccnc2)C1c1ccccc1)c1cc2ccccc2o1 (stereo not shown)	3.65%
CCOc1ccc(/C=c2\sc3nc(-c4ccc(F)cc4)nn3c2=O)cc1OC	-1.18%
COc1ccc(C(=O)Nc2cccnc2Cl)c(OC)n1	1.88%
Cc1ccc(C(=O)N/C(=C\c2ccco2)C(=O)NCCN2CCOCC2)cc1C	0.777%
Cc1cc(CNC(=O)c2c(F)cccc2F)c2ccccc2n1	0.9%
COc1ccc(CNc2nc(-c3ccco3)nn2C(=O)COc2ccc(Cl)cc2)cc1	5.06%
CC1CC(Nc2ccccc2)c2ccccc2N1C(=O)c1ccc([N+](=O)[O-])cc1 (stereo not shown)	1.41%
O=C(NCc1cccnc1)c1cc(C2CC2)[nH]n1	2.62%
O=C(NCc1ccco1)c1cnn2c(C(F)(F)F)cc(-c3ccc(Br)cc3)nc12	4.03%
CCN(CC)CCNC(=O)c1nnc(-c2ccc3c(c2)OCO3)o1	0.943%
CCN1CCCC1CNC(=O)CN(C)c1nnc(N2CCCC2=O)s1 (stereo not shown)	-5.63%
COc1cccc(Cn2c(C)c(CNCC(C)c3ccccc3)c(C(=O)O)c2C)c1 (stereo not shown)	-3.67%
c1ccc(-c2nc3cnc4ccccc4c3s2)cc1	14.9%
CCCn1c2ccccc2c2cnn(CC(=O)N3CCN(Cc4ccc5c(c4)OCO5)CC3)c(=O)c21	-0.238%
Cc1nc2ccc(-c3ccc4nc(C)oc(=O)c4c3)cc2c(=O)o1	-0.0217%
